Measurements published in the supplement of paper PMC7826260.
This is one part of the list. Viral Rep nickase domains cut single-stranded DNA in vitro (1 h at 37 °C, 3 µM enzyme); the outer parts of the 90-letter strands are left off. The score is log2 (uncut reads / reads without enzyme); the lower, the more was cut; hits are not called. Counts are relative to all reads, so uncut sequences can rise above 0 when many others are cut.

Tests used:
Test in all cases: uncleaved DNA left, log2 of reads against the no-enzyme library (log2 ratio); higher = less cleavage (more negative = more Rep cleavage of the k-mer); sequences stand for … in CTCGTCCG…ACCGGAGA
[1] = test system: T1, Rep nickase domain of Muscovy duck circovirus
T1 sequence (residues 1-111, tag not shown): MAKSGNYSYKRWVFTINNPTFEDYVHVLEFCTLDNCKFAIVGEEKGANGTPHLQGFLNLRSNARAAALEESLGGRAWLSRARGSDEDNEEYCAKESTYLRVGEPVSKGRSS
Description: (§1)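 A pool of 90-nt single-stranded DNAs with seven random bases just before the constant AC of the nick site (name = the seven bases) was cut by 3 µM recombinant His6-SUMO-tagged Rep nickase domain (300 nM DNA, 50 mM HEPES pH 8.0, 50 mM NaCl, 1 mM MnCl2, 1 h, 37 °C, three replicates). Uncut DNA was amplified and sequenced.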

[2] = test system: T2, Rep nickase domain of banana bunchy top virus
T2 sequence (residues 1-94, tag not shown): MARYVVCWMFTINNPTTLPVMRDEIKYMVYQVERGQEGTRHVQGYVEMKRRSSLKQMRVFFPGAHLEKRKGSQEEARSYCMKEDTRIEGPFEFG
Description: as §1

[3] = test system: T3, Rep nickase domain of cabbage leaf curl virus
T3 sequence (residues 1-116, tag not shown): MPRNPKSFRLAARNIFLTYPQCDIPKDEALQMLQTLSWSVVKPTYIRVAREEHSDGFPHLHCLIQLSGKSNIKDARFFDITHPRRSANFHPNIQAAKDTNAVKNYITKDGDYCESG
Description: as §1

[4] = test system: T4, Rep nickase domain of chickpea chlorotic dwarf virus
T4 sequence (residues 1-124, tag not shown): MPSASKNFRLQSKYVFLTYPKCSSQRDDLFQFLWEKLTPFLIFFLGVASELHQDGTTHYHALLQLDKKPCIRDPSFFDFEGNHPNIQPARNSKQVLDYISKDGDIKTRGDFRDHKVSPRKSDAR
Description: as §1

[5] = test system: T5, Rep nickase domain of faba bean necrotic yellows virus
T5 sequence (residues 1-98, tag not shown): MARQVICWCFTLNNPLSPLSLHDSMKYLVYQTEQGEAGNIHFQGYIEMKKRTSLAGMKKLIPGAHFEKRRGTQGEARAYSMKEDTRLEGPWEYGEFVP
Description: as §1

[6] = test system: T6, Rep nickase domain of maize striate mosaic virus
T6 sequence (residues 1-117, tag not shown): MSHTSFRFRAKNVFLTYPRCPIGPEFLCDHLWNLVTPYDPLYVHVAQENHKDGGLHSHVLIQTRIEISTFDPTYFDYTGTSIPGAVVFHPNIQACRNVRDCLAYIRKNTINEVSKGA
Description: as §1

[7] = test system: T7, Rep nickase domain of porcine circovirus 2
T7 sequence (residues 2-116, tag not shown): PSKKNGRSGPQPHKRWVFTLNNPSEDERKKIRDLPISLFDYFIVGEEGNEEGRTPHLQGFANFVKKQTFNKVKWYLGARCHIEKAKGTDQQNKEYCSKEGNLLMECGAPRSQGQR
Description: as §1

[8] = test system: T8, Rep nickase domain of tomato yellow leaf curl virus
T8 sequence (residues 1-136, tag not shown): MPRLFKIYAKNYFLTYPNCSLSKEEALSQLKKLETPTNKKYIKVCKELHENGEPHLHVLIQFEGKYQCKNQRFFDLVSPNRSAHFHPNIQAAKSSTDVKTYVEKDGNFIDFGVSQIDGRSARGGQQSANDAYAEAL
Description: as §1

[9] = test system: T9, Rep nickase domain of wheat dwarf virus
T9 sequence (residues 1-137, tag not shown): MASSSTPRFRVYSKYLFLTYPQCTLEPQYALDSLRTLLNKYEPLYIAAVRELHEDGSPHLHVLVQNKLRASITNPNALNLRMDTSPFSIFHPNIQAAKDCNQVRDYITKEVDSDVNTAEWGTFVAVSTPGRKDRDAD
Description: as §1

| Sequence | uncleaved DNA left (log2) [1] | uncleaved DNA left (log2) [2] | uncleaved DNA left (log2) [3] | uncleaved DNA left (log2) [4] | uncleaved DNA left (log2) [5] | uncleaved DNA left (log2) [6] | uncleaved DNA left (log2) [7] | uncleaved DNA left (log2) [8] | uncleaved DNA left (log2) [9] |
| --- | --- | --- | --- | --- | --- | --- | --- | --- | --- |
| TGTACCT | 0.0224 | 0.0308 | 0.148 | -1.06 | 0.0317 | 0.62 | -0.792 | 0.132 | 0.0505 |
| CTTACTT | 0.0175 | -0.0581 | -0.215 | -2.54 | -0.0397 | -0.502 | -0.549 | -0.0758 | -0.034 |
| GTCCGGC | -0.0244 | 0.085 | 0.323 | 0.748 | -0.027 | 1.08 | 0.11 | 0.0538 | 0.057 |
| CAAACCC | -0.163 | -0.109 | -0.26 | -1.12 | -0.0589 | -0.749 | -0.623 | -0.0805 | -0.0156 |
| TGGAATT | 0.102 | -0.0125 | 0.634 | 0.689 | -0.0207 | 1.93 | -0.371 | 0.0594 | 0.288 |
| AGGCCAT | -0.00401 | 0.0295 | 0.63 | 1.57 | 0.0415 | 1.95 | 0.116 | 0.039 | 0.226 |
| GGGCCGC | -0.0398 | 0.177 | 0.746 | 1.73 | -0.0776 | 2.05 | 0.119 | 0.0289 | 0.0257 |
| TTTCCGA | 0.1 | 0.0837 | 0.26 | 0.163 | 0.0813 | -0.122 | 0.0889 | 0.108 | 0.0557 |
| AACGATA | 0.0026 | -0.0168 | -0.0987 | -1.68 | 0.00359 | 0.145 | -0.0812 | 0.00102 | -0.00891 |
| ATCTCTA | -0.0405 | 0.0338 | -0.168 | -0.897 | 0.11 | -0.184 | -0.191 | 0.00577 | 0.0144 |
| CAGATAG | 0.0309 | -0.0963 | -0.783 | -0.429 | -0.0632 | -1.08 | 0.0024 | -0.106 | -0.131 |
| CTTTTGA | 0.158 | -0.0428 | -0.237 | -0.311 | 0.0503 | -1.09 | 0.00735 | -0.0355 | 0.0867 |
| GCGTGGT | -0.217 | -0.0896 | -0.0202 | 0.0798 | -0.101 | 0.33 | -2.18 | -0.116 | -0.22 |
| CAGTGAG | -0.162 | -0.182 | -0.926 | -0.131 | -0.139 | -0.913 | -0.00954 | -0.101 | -0.307 |
| AATCCCC | 0.0246 | -0.0768 | 0.0587 | -0.12 | 0.0524 | 0.172 | -2.01 | 0.0931 | 0.0798 |
| GGTCTAC | 0.116 | 0.155 | 0.463 | 0.984 | -0.0259 | 1.8 | 0.167 | 0.13 | 0.184 |
| CAAGTGA | 0.00126 | -0.112 | -0.297 | -0.396 | 0.0249 | -0.954 | 0.0707 | -0.0763 | -0.0228 |
| GGCACCC | 0.0202 | -0.0274 | 0.377 | 1.01 | -0.105 | 1.61 | -0.17 | -0.0391 | 0.0661 |
| TGTGCAG | -0.132 | -0.157 | -0.725 | -0.516 | -0.15 | -1 | -0.0211 | -0.0232 | -0.286 |
| GCTGAAT | 0.0183 | 0.0515 | 0.189 | 0.535 | 0.127 | 0.91 | 0.108 | 0.109 | 0.198 |
| ACCTTAA | -0.0764 | -0.0702 | -0.46 | -0.538 | -0.124 | -0.913 | -0.0644 | -0.221 | -0.097 |
| TCAACTG | 0.038 | -0.00988 | 0.152 | 0.545 | 0.0478 | 1.3 | 0.135 | -0.058 | 0.0789 |
| ATTTGAG | 0.0216 | 0.016 | -0.625 | 0.369 | 0.105 | -0.817 | 0.196 | 0.116 | -0.0327 |
| GGTGCAC | 0.0284 | 0.117 | 0.681 | 1.64 | -0.123 | 2.06 | 0.186 | 0.0847 | 0.0302 |
| GTCCCTT | 0.0339 | 0.0182 | 0.396 | 0.656 | 0.0291 | 1.81 | 0.152 | 0.0475 | 0.198 |
| TTCCCCC | -0.216 | -0.0714 | 0.0314 | -0.33 | -0.259 | -0.342 | -0.524 | -0.108 | -0.0177 |
| CGTAGTG | 0.0618 | 0.0757 | -0.196 | 0.119 | 0.142 | -0.203 | 0.195 | 0.0609 | 0.123 |
| AAGTACT | -4.04 | -3.48 | -0.886 | -2.82 | -3.72 | 0.226 | -4.32 | -0.113 | -0.183 |
